# Read-outs that look alike come from different tables or passages of the source.
# Columns and labels:
# [1] = tested on: cultured bloodstream T. brucei (strain 427)
# [2] = tested on: cultured bloodstream T. brucei (strain 427); experiment: microbe, parasite or virus in culture; conditions: Trypanosoma brucei; for viability at 500 µM: read-out: T. brucei Alamar Blue
# [3] = T. brucei ED50 versus HeLa ED50
# [4] = read-out: T. brucei ED50, ED50 ± SD (n = 4)
Compound,"Selectivity index [1, 3]",viability at 500 µM [2] [%],"IC50 [2, 4] [µM]",Selectivity index [1],IC50 ([2]; read-out: T. brucei ED50) [µM]
"Nc1ccc(C(F)(F)F)cc1 [compound 270, 4‐(trifluoromethyl)aniline]",6.8,25.8 ± 6.6,< 40,–,–
"Nc1ccccc1-c1cccnc1 [compound 348, 2‐pyridin‐3‐ylaniline]",0.6,22.2 ± 5.6,< 40,–,–
"Nc1ccc(-c2ccco2)cc1 [compound 257, 4‐(2‐furyl)aniline]",2.0,29.3 ± 8.5,56 ± 3.6,–,–
"Nc1ccc(-n2cccc2)cc1 [compound 250, 4‐(1H‐pyrrol‐1‐yl)aniline]",17.1,32.4 ± 12.8,81 ± 5.1,–,–
"Nc1ccccc1O [269e, 2-amino-phenol]",–,–,–,3.4,20 ± 0.3

# From paper PMC3199943, “Screening the MayBridge Rule of 3 Fragment Library for Compounds That Interact with the Trypanosoma brucei myo-Inositol-3-Phosphate Synthase and/or Show Trypanocidal Activity” (Molecular Biology International, 2011)
